The values below come from ChEMBL document CHEMBL1201862, “PubChem BioAssay data set” (2004).

SMILES strings stand for the structures. Several values for one entry are separate records, joined by “and”; a condition that tells them apart may be missing. Equal values may be shown once.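 Test compounds were applied to cells in 96-well plates for 48 hours at 5 doses. GI50 = concentration required for 50% inhibition of growth.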 Activity calls are given as the source filed them. Rule as the data show it: active = GI50 up to about 1.1 µM and inactive = higher. A value given as a limit tells only on which side of the number the result lay.

This assay relates to NCI-H322M. As to the kind of experiment: growth of human tumour cells (NCI), 48 h.
`Cc1c(Cl)cccc1NC(=O)CC1Sc2ccccc2NC1=O` (centres undefined): the GI50 was inactive: 27.4 µM and inactive: 33 µM.
Take `CCOc1ccc2nc(NC(=O)C(=O)C(c3cnc4ccccc4n3)[N+](=O)[O-])sc2c1` (centres undefined): the GI50 was inactive: > 100 µM.
Turning to `CS/C(Nc1ccccc1)=C1\C(=O)N(c2ccccc2)N=C1C`, the GI50 was inactive: > 100 µM.
In the case of `CCc1ccccc1NC(=O)C(=O)C(C#N)c1ccccc1Cl` (centres undefined) it was inactive: > 100 µM; in that of `CO[C@]12CC(=O)C3(C(C[C@H]4CC5CCC6=CC(=O)CC[C@]6(OC(C)=O)C5C[C@@]43C)C1)C1C[C@H]3[C@@H]4CCC5=CC(=O)CC[C@]5(OC(C)=O)[C@H]4CC[C@]3(C)C12` (some centres undefined), inactive: > 100 µM.
Consider `C/C(=N\Nc1ccccc1Br)c1cccc(/C(C)=N/Nc2ccccc2Br)n1`, for which the GI50 is inactive: > 100 µM.
In the case of `CC(=O)OC1=C(c2ccccc2)S(=O)(=O)c2ccccc21` it was inactive: > 100 µM.
On to `NC(=S)N/N=C(\C(=O)Nc1ccc(Cl)c(Cl)c1)C1=NN(c2ccccc2)C(c2cccc([N+](=O)[O-])c2)CC1=O` (centres undefined), for which the GI50 is inactive: > 100 µM.
For `O=C(O)CC1CC=C[C@H]2c3cc4c(cc3C(=O)NC12)OCO4` (some centres undefined), the GI50 was inactive: > 75 µM.
In the case of `CN(C)c1ccc(/C=C2\C[N+](C)(C)C/C(=C\c3ccc(N(C)C)cc3)C2=O)cc1` it was inactive: 42.1 µM; in that of `COC(=O)C(CCSC)NC(=O)Cc1ccc(C(=O)c2ccccc2)cc1` (centres undefined), inactive: > 100 µM; in that of `O=c1[nH]/c(=C/c2ccc(OCc3ccccc3)cn2)c(=O)[nH]/c1=C/c1ccccc1`, active: 0.328 µM.
Take `O=c1c2cc(S(=O)(=O)O)ccc2nc(COc2ccc(Oc3ccc(Cl)cc3Cl)cc2)n1-c1ccc(Oc2ccc(Cl)cc2)cc1Cl`: the GI50 is inactive: 33.7 µM.
On to `CCCCC(=O)Oc1ccc2c(C)cc(=O)oc2c1`, for which the GI50 was inactive: > 100 µM.
As to `CC1(C)O[C@H]2[C@H](O)C[C@](O)(CO)C[C@H]2O1`, the GI50 is inactive: > 100 µM.
In the case of `CC(C)(C)OC(=O)n1cc(C2CN(O)C(=O)C23CCC(=O)N3Cc2ccccc2)c2ccccc21` (centres undefined) it was inactive: 31.3 µM; in that of `CC(=O)/C(=C/n1c(=S)sc2ccccc21)C(=O)Nc1ccccc1C`, inactive: > 100 µM.
In the case of `CN(C)/N=N/c1ccccc1` it was inactive: > 100 µM.
`CCCc1nnc2sc(COc3ccc(OCc4nn5c(CCC)nnc5s4)c(Cl)c3)nn12`: the GI50 was inactive: 30.4 µM.
Consider `CC(=O)OCCCCN1C(=O)CSc2ccccc21`, for which the GI50 was inactive: > 100 µM.
For the compound `COC(=O)CNC(=O)C(CSC(=O)OCC1c2ccccc2-c2ccccc21)NC(=O)CCC(NC(=O)OCC1c2ccccc2-c2ccccc21)C(=O)OC` (centres undefined), the GI50 was inactive: 24.4 µM.
In the case of `CC(=O)/C(=C/c1ccccc1F)C(=O)c1ccccc1` it was inactive: 97.7 µM; in that of `CC(=O)NC1=C(NCCC(C)C)C(=O)c2ccccc2C1=O`, inactive: > 50 µM.
In the case of `CCO/C([O-])=C(\C(=O)c1ccc([N+](=O)[O-])cc1)[n+]1c(C)n(C)c2ccccc21` it was inactive: > 100 µM; in that of `CC(=O)OCC1OC(n2ccc(=O)[nH]c2=O)C(OC(C)=O)C(OC(C)=O)C1OC(C)=O` (centres undefined), inactive: > 100 µM; in that of `CC(C)SC1SCC2C(=O)N(C)C3(CC3C)C(=O)OCC(NC(=O)c3nc4ccccc4cc3O)C(=O)NC(C)C(=O)N(C)C1C(=O)N(C)C1(CC1C)C(=O)OCC(NC(=O)c1nc3ccccc3cc1O)C(=O)NC(C)C(=O)N2C` (centres undefined), active: < 0.0001 µM.
In the case of `O=C(O)C1=CN(c2ccncc2)C(c2ccco2)=CC1c1ccccc1[N+](=O)[O-]` (centres undefined) it was inactive: 16.7 µM; in that of `Fc1ccc(C(OCCN2CCN(CCCCl)CC2)c2ccc(F)cc2)cc1`, inactive: 29.9 µM; in that of `CC1(CCCO)CCCCCCCCCC(C)(CCCO)C1=O` (centres undefined), inactive: > 100 µM.
Consider `CC(C)(C)c1ccc2c(c1)S(=O)(=O)Nc1ccc(Cl)cc1NS(=O)(=O)c1cc(C(C)(C)C)ccc1OCCOCCOCCO2`, for which the GI50 was inactive: > 100 µM.
In the case of `O=C(O)C1C2C=CC(O2)C1C(=O)Nc1ncccn1` (centres undefined) it was inactive: > 100 µM.
Take `Cc1cc(Cl)cc2c1NC(=O)C2(O)CC(=O)c1ccc(Br)cc1` (centres undefined): the GI50 is inactive: 99.8 µM.
Turning to `O=C1NC2C(=O)N(Cc3ccccc3)C(=O)C2N1` (centres undefined), the GI50 is inactive: > 100 µM.
In the case of `Cc1ccc(NC(c2ccccc2)c2ccc3cccnc3c2O)cc1` (centres undefined), the GI50 was inactive: 3.18 µM.
Take `CC(C)(C)OC(=O)NC1CCCC1C(O)(C1=CCCC1)C1=CCCC1` (centres undefined): the GI50 is inactive: > 100 µM.
In the case of `CC(=O)OCC1OC(n2c(-c3ccc(N)cc3)cc(-c3ccco3)c(C#N)c2=O)C(OC(C)=O)C(OC(C)=O)C1OC(C)=O` (centres undefined) it was inactive: > 50 µM.
In the case of `N#Cc1c(-c2ccc([N+](=O)[O-])cc2)cc(-c2ccc(Nc3ccnc4cc(Cl)ccc34)cc2)[nH]c1=O`, the GI50 was inactive: > 100 µM.
In the case of `O=C(Cc1ccccc1)NN1C(=O)C(Cl)C1c1cccc(O)c1` (centres undefined), the GI50 was inactive: 17.7 µM.
In the case of `CCCCCCCCCc1cc(=O)c2c(O)cc(O)cc2o1` it was inactive: 20 µM; in that of `O=C(CC1(O)C(=O)Nc2ccccc21)c1ccc(F)cc1` (centres undefined), inactive: > 100 µM; in that of `C/C1=C\CC[C@@]2(C)O[C@@H]2C[C@@H]2[C@H](C/C(C)=C/CC1)OC(=O)C21CCN=N1` (some centres undefined), inactive: > 75 µM.
In the case of `O=C/C1=C/C2=Cc3ccccc3C=C(/C=C(/C=O)C1)C2` it was inactive: > 100 µM; in that of `COC(=O)C1(Cc2ccccc2)Cc2c(C)ccc(C)c2C1=O` (centres undefined), inactive: 28.3 µM; in that of `CCOC(=O)NC(=O)c1cn(CCSCCOC(=O)NCCCCCCNC(=O)OCCSCCn2cc(C(=O)NC(=O)OCC)c(=O)[nH]c2=O)c(=O)[nH]c1=O`, inactive: > 100 µM.
For `O=C1CCc2cc3c(cc21)CC1(Cc2ccccc2C1)C3`, the GI50 was inactive: 31.8 µM.
In the case of `Cc1ccccc1N(C)S(=O)(=O)c1ccccc1[N+](=O)[O-]`, the GI50 is inactive: > 100 µM.
`CCn1c(=O)c2nc(SC)sc2n(-c2ccc(C)cc2)c1=O`: the GI50 is inactive: > 100 µM.
In the case of `COc1ccc(S(=O)(=O)NC(CCC(=O)NN)C(=O)NN)cc1` (centres undefined) it was inactive: > 100 µM; in that of `C=C1[C@H](OC(=O)C(C)C)[C@]23CC4(O)[C@@H]5[C@@]6(C)CCC[C@]57C([C@@H]2C[C@@]1(O)[C@H](O)[C@@H]73)N4C6`, inactive: > 100 µM; in that of `CCC1CN2CCc3c([nH]c4ccccc34)[C@@](C(=O)OC)(c3cc4c(cc3OC)N(C)C3C(O)(C(=O)OC)C(C(=O)OC)C5(CC)C=CCN6CCC43C65)C[C@@H](C2)[C@@H]1C(C)(C)C` (some centres undefined), active: 0.498 µM.
For the compound `O=c1ncccn1[C@@H]1O[C@H](CO)[C@@H](O)[C@@H]1F`, the GI50 was inactive: > 100 µM and inactive: > 95.1 µM.
For the compound `O=C(O)[C@@H]1C[C@@H](O)CN1`, the GI50 was inactive: > 100 µM.
In the case of `CC(C)=CCNc1ncnc2[nH]cnc12` it was inactive: > 100 µM; in that of `CC(C)C[C@H](NC(=O)[C@@H](N)Cc1cccc2ccccc12)B(O)O`, active: 0.251 µM.
